# This is one part of the list. Repeats are few or missing, and single values can be far off.
# How the values were obtained:
# Assay in all cases: cell count relative to DMSO control; melanoma cells; higher = more viable cells
# Settings in all cases: library dose: low library concentration; 72 h
# WM115 = tested on: WM115
# WM1716 = tested on: WM1716
# WM1745 = tested on: WM1745
# WM3526 = tested on: WM3526
# WM3619 = tested on: WM3619
# WM451Lu = tested on: WM451Lu
# 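Further: cell number obtained by counting DAPI-stained nuclei in high-throughput microscope images with image analysis software, screen run in 1,536-well plates.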
SMILES,cell count (WM115),cell count (WM1716),cell count (WM1745),cell count (WM3526),cell count (WM3619),cell count (WM451Lu)
"O=C(Nc1ccccc1)c1cc([N+](=O)[O-])ccc1Cl + COc1cc2ncnc(Nc3ccc(Oc4ccccc4)cc3)c2cc1OC [SrcI1] (first compound 2 µM, partner dose 2 µM)",105%,109%,75.8%,81%,89.5%,122%
"O=C(Nc1ccccc1)c1cc([N+](=O)[O-])ccc1Cl + Oc1cc(-c2nc(-c3ccccc3)[nH]c2-c2ccncc2)ccc1Cl [L779450] (first compound 2 µM, partner dose 0.2 µM)",80.7%,119%,90.5%,87.5%,82.7%,98.1%
"Cn1nnc2c(C(N)=O)ncn2c1=O [temozolomide] + O=S(=O)(c1ccccc1)N(CC(F)(F)F)c1ccc(C(O)(C(F)(F)F)C(F)(F)F)cc1 [T0901317] (first compound 2 µM, partner dose 1.4 µM)",97%,95.5%,90%,96.6%,119%,110%
"O=C(Nc1cc(C(F)(F)F)cc(C(F)(F)F)c1)c1cc(Cl)ccc1O + O=c1cc(-c2cccc3c2Sc2ccccc2S3)oc(N2CCOCC2)c1 [KU55933] (first compound 0.016 µM, partner dose 1 µM)",97.3%,119%,99.1%,90.2%,105%,102%
"O=C(Nc1ccccc1)c1cc([N+](=O)[O-])ccc1Cl + O=c1cc(-c2cccc3c2Sc2ccccc2S3)oc(N2CCOCC2)c1 [KU55933] (first compound 2 µM, partner dose 1 µM)",95.2%,97%,97.5%,99.2%,123%,94.8%
"O=C(O)c1ccc2c(c1)nc(Nc1cccc(Cl)c1)c1ccncc12 + Oc1cc(-c2nc(-c3ccccc3)[nH]c2-c2ccncc2)ccc1Cl [L779450] (first compound 0.4 µM, partner dose 0.2 µM)",91.7%,104%,93.4%,61.6%,92.2%,115%
"Cn1nnc2c(C(N)=O)ncn2c1=O [temozolomide] + COc1cc(N2CCC(N3CCN(C)CC3)CC2)ccc1Nc1ncc(Cl)c(Nc2ccccc2S(=O)(=O)C(C)C)n1 [NVP-TAE684] (first compound 2 µM, partner dose 0.08 µM)",96.8%,81.6%,82.4%,108%,108%,102%
"O=C(O)c1ccc2c(c1)nc(Nc1cccc(Cl)c1)c1ccncc12 + COc1cc2ncnc(Nc3ccc(Oc4ccccc4)cc3)c2cc1OC [SrcI1] (first compound 0.4 µM, partner dose 2 µM)",95.7%,107%,89.5%,80.4%,100%,108%
"O=C(O)[C@@H]1[O][Sb](=[O])([O][Sb]2(=[O])[O][C@H]([C@H](O)CO)[C@H](O)[C@H](C(=O)O)[O]2)[O][C@H]([C@H](O)CO)[C@@H]1O (some centres undefined) [stibogluconate] + Oc1nc(-c2ccc(C(F)(F)F)cc2)nc2c1CSCC2 [XAV939] (first compound 2 µM, partner dose 2 µM)",94.2%,54.4%,94.4%,114%,85.9%,88.2%
"O=C(O)c1ccc2c(c1)nc(Nc1cccc(Cl)c1)c1ccncc12 + Cn1cc(/C=C2\C(=O)Nc3cccnc32)c2ccccc21 [GW441756] (first compound 0.4 µM, partner dose 0.4 µM)",96.1%,108%,98.7%,114%,105%,98.1%
"O=C(Nc1cc(C(F)(F)F)cc(C(F)(F)F)c1)c1cc(Cl)ccc1O + O=C1NC(=O)/C(=C/c2ccc(-c3ccc(F)cc3O)o2)S1 [AS252424] (first compound 0.016 µM, partner dose 1 µM)",92.9%,113%,108%,92.7%,128%,116%
"O=C(Nc1cc(C(F)(F)F)cc(C(F)(F)F)c1)c1cc(Cl)ccc1O + C=C(c1ccc(C(=O)O)cc1)c1cc2c(cc1C)C(C)(C)CCC2(C)C [Bexarotene] (first compound 0.016 µM, partner dose 2 µM)",91.6%,97.3%,86.1%,84.6%,81%,82.3%
"O=C(O)[C@@H]1[O][Sb](=[O])([O][Sb]2(=[O])[O][C@H]([C@H](O)CO)[C@H](O)[C@H](C(=O)O)[O]2)[O][C@H]([C@H](O)CO)[C@@H]1O (some centres undefined) [stibogluconate] + CN(NC(=O)CC(=O)NN(C)C(=S)c1ccccc1)C(=S)c1ccccc1 [STA4783] (first compound 2 µM, partner dose 0.006 µM)",101%,81.3%,91.7%,93.8%,112%,126%
"O=C(Nc1cc(C(F)(F)F)cc(C(F)(F)F)c1)c1cc(Cl)ccc1O + CC1(C)NC(=O)N(c2ccc([N+](=O)[O-])c(C(F)(F)F)c2)C1=O [nilutamide] (first compound 0.016 µM, partner dose 1 µM)",85.9%,90.1%,110%,115%,118%,103%
"O=C(O)[C@@H]1[O][Sb](=[O])([O][Sb]2(=[O])[O][C@H]([C@H](O)CO)[C@H](O)[C@H](C(=O)O)[O]2)[O][C@H]([C@H](O)CO)[C@@H]1O (some centres undefined) [stibogluconate] + O=C(Nc1cccc(Cl)c1)Nc1ncc(CCNc2ncnc3ccsc23)s1 [SNS314] (first compound 2 µM, partner dose 0.0008 µM)",90.8%,122%,96.1%,84%,104%,59.9%
"O=C(Nc1ccccc1)c1cc([N+](=O)[O-])ccc1Cl + c1cc(-c2cnn3cc(-c4ccc(OCCN5CCCCC5)cc4)cnc23)ccn1 [Dorsomorphin] (first compound 2 µM, partner dose 0.4 µM)",88.8%,88.9%,76.7%,127%,79%,146%
"O=C(Nc1cc(C(F)(F)F)cc(C(F)(F)F)c1)c1cc(Cl)ccc1O + O=C(O)[C@@H]1[O][Sb](=[O])([O][Sb]2(=[O])[O][C@H]([C@H](O)CO)[C@H](O)[C@H](C(=O)O)[O]2)[O][C@H]([C@H](O)CO)[C@@H]1O [stibogluconate] (first compound 0.016 µM, partner dose 2 µM)",89.3%,99.4%,86.5%,103%,92.3%,173%
"O=C(O)c1ccc2c(c1)nc(Nc1cccc(Cl)c1)c1ccncc12 + COc1ccc(Cl)c(Nc2nc3ccccc3nc2NS(=O)(=O)c2cccc(NC(=O)C(C)(C)N)c2)c1 [XL147] (first compound 0.4 µM, partner dose 0.8 µM)",111%,76.6%,75.7%,84.1%,95.3%,91.5%
"Cc1cc(N2CCOCC2)cc2[nH]c(-c3c(NC[C@@H](O)c4cccc(Cl)c4)cc[nH]c3=O)nc12 + CCCCCCCCCCCC1=C(O)C(=O)C=C(O)C1=O [Embelin] (first compound 0.2 µM, partner dose 1.2 µM)",115%,97.5%,66.8%,107%,105%,115%
"O=C(O)[C@@H]1[O][Sb](=[O])([O][Sb]2(=[O])[O][C@H]([C@H](O)CO)[C@H](O)[C@H](C(=O)O)[O]2)[O][C@H]([C@H](O)CO)[C@@H]1O (some centres undefined) [stibogluconate] + COc1ccc(COc2ccc(Cc3cnc(N)nc3N)cc2OC)cc1 [GW2580] (first compound 2 µM, partner dose 1 µM)",99.1%,92.1%,95.1%,84.6%,116%,107%
"O=C(O)c1ccc2c(c1)nc(Nc1cccc(Cl)c1)c1ccncc12 + Nc1nc(F)nc2c1ncn2[C@@H]1O[C@H](CO)[C@@H](O)[C@@H]1O [fludarabine] (first compound 0.4 µM, partner dose 0.2 µM)",89.3%,83.2%,105%,26.8%,115%,74.3%
"O=C(O)c1ccc2c(c1)nc(Nc1cccc(Cl)c1)c1ccncc12 + O=C1NC(=O)/C(=C/c2ccc(-c3ccc(F)cc3O)o2)S1 [AS252424] (first compound 0.4 µM, partner dose 1 µM)",97.1%,83.1%,82.3%,87.3%,106%,103%
"O=C(O)c1ccc2c(c1)nc(Nc1cccc(Cl)c1)c1ccncc12 + NCC(=O)Nc1ccc(-n2nc(C(F)(F)F)cc2-c2ccc3c(ccc4ccccc43)c2)cc1 [OSU03012] (first compound 0.4 µM, partner dose 1 µM)",79.1%,104%,94.7%,49.1%,78%,40.6%
"O=C(O)c1ccc2c(c1)nc(Nc1cccc(Cl)c1)c1ccncc12 + Cc1cc(N2CCOCC2)cc2[nH]c(-c3c(NC[C@@H](O)c4cccc(Cl)c4)cc[nH]c3=O)nc12 [BMS536924] (first compound 0.4 µM, partner dose 0.2 µM)",125%,92.9%,82%,91.6%,82.1%,101%

# Reference: the supplement of paper PMC4604168 (melanoma cell lines)
